In PMC7220951:
These are yes or no findings as the source states them, for the method shown. Binding seen in cells or lysates may run through a third protein. Some entries that bind do so weakly or less than the wild type. Tags and fused reporters may be left off the sequences shown. Values belong to the binder of their own block, whether it stands above or below them.

Assays:
GST-Ciao1 (Drosophila) = molecular target: T1, GST-Ciao1 (Drosophila) (UniProt Q7K1Y4); assay: pull-down; in vitro GST pull-down of GST and MBP fusion proteins from bacterial cell lysates; 20 mM Tris pH 7.5, 150 mM NaCl, 0.5 mM EDTA, 10% glycerol, 0.1% Triton-X100, 1 mM DTT, protease inhibitor cocktail; blots with anti-MBP and anti-GST
T1 sequence: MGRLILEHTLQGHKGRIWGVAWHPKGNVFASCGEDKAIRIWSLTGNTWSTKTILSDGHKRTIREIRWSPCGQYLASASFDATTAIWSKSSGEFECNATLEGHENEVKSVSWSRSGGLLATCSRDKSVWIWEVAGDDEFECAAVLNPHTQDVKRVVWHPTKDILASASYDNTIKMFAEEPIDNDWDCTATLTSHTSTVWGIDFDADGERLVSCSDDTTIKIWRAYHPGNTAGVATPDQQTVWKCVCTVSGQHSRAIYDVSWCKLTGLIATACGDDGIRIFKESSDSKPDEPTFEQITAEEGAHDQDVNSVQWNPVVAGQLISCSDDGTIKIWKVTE

[1] = molecular target: T2, GST-Galla1-C (Drosophila) (UniProt Q9V968); assay: as above
T2 sequence: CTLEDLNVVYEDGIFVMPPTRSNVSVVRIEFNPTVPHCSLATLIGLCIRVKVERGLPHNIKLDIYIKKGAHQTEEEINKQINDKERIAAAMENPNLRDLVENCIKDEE

[2] = molecular target: T3, GST-Galla1-N (Drosophila) (UniProt Q9V968); assay: as above
T3 sequence: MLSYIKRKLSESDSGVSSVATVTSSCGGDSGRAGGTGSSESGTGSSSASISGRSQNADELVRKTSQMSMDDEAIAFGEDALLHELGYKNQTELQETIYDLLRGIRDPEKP

Galla1 (Drosophila) = molecular target: T4, Galla1 (Drosophila) (UniProt Q9V968); assay: as above
T4 sequence: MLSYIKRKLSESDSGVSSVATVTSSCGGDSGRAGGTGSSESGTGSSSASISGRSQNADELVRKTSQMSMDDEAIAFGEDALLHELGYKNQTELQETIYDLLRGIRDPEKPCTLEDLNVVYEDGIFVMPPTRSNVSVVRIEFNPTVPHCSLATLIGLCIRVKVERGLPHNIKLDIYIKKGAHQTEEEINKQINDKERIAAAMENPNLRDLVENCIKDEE

Flag-Xpd (Drosophila) = molecular target: T5, Flag-Xpd (Drosophila) (UniProt Q7KVP9); assay: co-IP; transfected Drosophila S2 cells lysed in 0.1% CHAPS buffer; immunoprecipitation with anti-Myc or anti-Flag on protein G-sepharose overnight at 4 °C; blot with anti-Flag or anti-V5
T5 sequence: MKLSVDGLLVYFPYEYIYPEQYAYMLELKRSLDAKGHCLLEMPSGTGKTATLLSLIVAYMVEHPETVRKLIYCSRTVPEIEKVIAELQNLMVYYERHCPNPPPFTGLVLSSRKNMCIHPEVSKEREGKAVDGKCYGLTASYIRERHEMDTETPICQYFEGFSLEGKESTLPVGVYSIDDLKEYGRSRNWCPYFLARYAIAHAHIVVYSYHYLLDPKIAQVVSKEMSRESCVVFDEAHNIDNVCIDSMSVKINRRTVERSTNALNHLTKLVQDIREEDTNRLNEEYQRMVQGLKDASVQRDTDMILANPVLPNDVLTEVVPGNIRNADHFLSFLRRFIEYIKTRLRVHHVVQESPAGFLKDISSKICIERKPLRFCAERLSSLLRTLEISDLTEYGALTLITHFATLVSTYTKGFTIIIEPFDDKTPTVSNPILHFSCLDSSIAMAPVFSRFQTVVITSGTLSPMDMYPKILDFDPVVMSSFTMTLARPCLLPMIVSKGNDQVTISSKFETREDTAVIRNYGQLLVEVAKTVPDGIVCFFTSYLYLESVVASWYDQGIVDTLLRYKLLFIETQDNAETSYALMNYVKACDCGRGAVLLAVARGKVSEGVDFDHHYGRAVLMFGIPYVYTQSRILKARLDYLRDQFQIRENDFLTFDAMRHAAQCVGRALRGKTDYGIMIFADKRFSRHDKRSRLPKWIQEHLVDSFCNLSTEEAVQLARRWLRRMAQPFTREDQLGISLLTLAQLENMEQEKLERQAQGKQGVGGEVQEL

Myc-Galla1 (Drosophila) = molecular target: T6, Myc-Galla1 (Drosophila) (UniProt Q9V968); assay: as above
T6 sequence: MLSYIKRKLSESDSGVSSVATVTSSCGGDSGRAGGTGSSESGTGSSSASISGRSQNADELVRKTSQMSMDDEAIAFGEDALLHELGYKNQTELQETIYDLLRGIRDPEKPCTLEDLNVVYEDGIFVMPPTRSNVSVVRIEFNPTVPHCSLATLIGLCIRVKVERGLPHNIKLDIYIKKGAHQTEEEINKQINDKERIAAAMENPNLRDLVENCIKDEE

binding (GST-Ciao1 (Drosophila)): binds
B1: MBP-Xpd (protein, UniProt Q7KVP9 1-769)
chain: MKLSVDGLLVYFPYEYIYPEQYAYMLELKRSLDAKGHCLLEMPSGTGKTATLLSLIVAYMVEHPETVRKLIYCSRTVPEIEKVIAELQNLMVYYERHCPNPPPFTGLVLSSRKNMCIHPEVSKEREGKAVDGKCYGLTASYIRERHEMDTETPICQYFEGFSLEGKESTLPVGVYSIDDLKEYGRSRNWCPYFLARYAIAHAHIVVYSYHYLLDPKIAQVVSKEMSRESCVVFDEAHNIDNVCIDSMSVKINRRTVERSTNALNHLTKLVQDIREEDTNRLNEEYQRMVQGLKDASVQRDTDMILANPVLPNDVLTEVVPGNIRNADHFLSFLRRFIEYIKTRLRVHHVVQESPAGFLKDISSKICIERKPLRFCAERLSSLLRTLEISDLTEYGALTLITHFATLVSTYTKGFTIIIEPFDDKTPTVSNPILHFSCLDSSIAMAPVFSRFQTVVITSGTLSPMDMYPKILDFDPVVMSSFTMTLARPCLLPMIVSKGNDQVTISSKFETREDTAVIRNYGQLLVEVAKTVPDGIVCFFTSYLYLESVVASWYDQGIVDTLLRYKLLFIETQDNAETSYALMNYVKACDCGRGAVLLAVARGKVSEGVDFDHHYGRAVLMFGIPYVYTQSRILKARLDYLRDQFQIRENDFLTFDAMRHAAQCVGRALRGKTDYGIMIFADKRFSRHDKRSRLPKWIQEHLVDSFCNLSTEEAVQLARRWLRRMAQPFTREDQLGISLLTLAQLENMEQEKLERQAQGKQGVGGEVQEL

binding [1]: binds | binding [2]: no binding | binding (Galla1 (Drosophila)): binds
B2: MBP-Ciao1 (protein, UniProt Q7K1Y4 1-335)
chain: MGRLILEHTLQGHKGRIWGVAWHPKGNVFASCGEDKAIRIWSLTGNTWSTKTILSDGHKRTIREIRWSPCGQYLASASFDATTAIWSKSSGEFECNATLEGHENEVKSVSWSRSGGLLATCSRDKSVWIWEVAGDDEFECAAVLNPHTQDVKRVVWHPTKDILASASYDNTIKMFAEEPIDNDWDCTATLTSHTSTVWGIDFDADGERLVSCSDDTTIKIWRAYHPGNTAGVATPDQQTVWKCVCTVSGQHSRAIYDVSWCKLTGLIATACGDDGIRIFKESSDSKPDEPTFEQITAEEGAHDQDVNSVQWNPVVAGQLISCSDDGTIKIWKVTE

binding (Flag-Xpd (Drosophila)): binds | binding (Myc-Galla1 (Drosophila)): binds
B3: V5-Ciao1 (protein, UniProt Q7K1Y4 1-335)
chain: MGRLILEHTLQGHKGRIWGVAWHPKGNVFASCGEDKAIRIWSLTGNTWSTKTILSDGHKRTIREIRWSPCGQYLASASFDATTAIWSKSSGEFECNATLEGHENEVKSVSWSRSGGLLATCSRDKSVWIWEVAGDDEFECAAVLNPHTQDVKRVVWHPTKDILASASYDNTIKMFAEEPIDNDWDCTATLTSHTSTVWGIDFDADGERLVSCSDDTTIKIWRAYHPGNTAGVATPDQQTVWKCVCTVSGQHSRAIYDVSWCKLTGLIATACGDDGIRIFKESSDSKPDEPTFEQITAEEGAHDQDVNSVQWNPVVAGQLISCSDDGTIKIWKVTE
